Consider one substance from PMC6005513.

Where a chain is given by its changes, count along the chain named. Results are given in words; binding and its absence hold for the method and conditions named. Some results given as binding are weak or reduced against the parent protein; the word gives no strength.

Assay in all cases: binding of fluorescently labelled peptide to transfected cells, plate fluorescence scan; 10 nM myr-preS1-Al633 peptide in DMEM, 20 min, 37°C, on NTCP/Ntcp-transfected HEK293 cells in 24-well plates; washed with DMEM 2 min at 37°C; plates scanned at room temperature (Typhoon FLA 7000, 633 nm), total signal per area; only the binder purified
Assay [1] concerns the target T1, Saguinus oedipus (cotton-top tamarin) Ntcp, wild type (Saguinus oedipus).
T1 sequence: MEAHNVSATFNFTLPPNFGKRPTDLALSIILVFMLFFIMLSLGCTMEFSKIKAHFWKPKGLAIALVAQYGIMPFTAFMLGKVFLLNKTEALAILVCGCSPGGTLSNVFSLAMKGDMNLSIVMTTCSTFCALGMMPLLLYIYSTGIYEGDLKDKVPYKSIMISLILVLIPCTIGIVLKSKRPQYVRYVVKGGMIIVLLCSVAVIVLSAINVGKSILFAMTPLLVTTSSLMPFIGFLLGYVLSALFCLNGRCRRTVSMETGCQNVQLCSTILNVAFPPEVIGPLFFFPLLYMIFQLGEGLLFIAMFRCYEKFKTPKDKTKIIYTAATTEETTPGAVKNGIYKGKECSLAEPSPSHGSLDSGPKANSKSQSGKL

Assay [2] addresses T2, human NTCP G158S (human) (UniProt Q14973).
T2 sequence: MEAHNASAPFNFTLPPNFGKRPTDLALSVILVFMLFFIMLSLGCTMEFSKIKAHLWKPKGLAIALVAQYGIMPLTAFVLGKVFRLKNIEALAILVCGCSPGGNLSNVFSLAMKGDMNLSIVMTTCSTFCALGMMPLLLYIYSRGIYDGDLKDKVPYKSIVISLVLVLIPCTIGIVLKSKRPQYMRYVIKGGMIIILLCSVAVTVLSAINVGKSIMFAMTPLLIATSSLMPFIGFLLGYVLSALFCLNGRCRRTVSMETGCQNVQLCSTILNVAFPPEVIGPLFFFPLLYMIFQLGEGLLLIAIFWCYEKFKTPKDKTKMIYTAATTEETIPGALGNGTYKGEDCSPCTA

Assay [3] has as its target T3, human NTCP G158D (human) (UniProt Q14973).
T3 sequence: T2 sequence with S158D

In assay [4] the target is T4, human NTCP G158N (human) (UniProt Q14973).
T4 sequence: T2 sequence with S158N

Assay [5] addresses Papio hamadryas (hamadryas baboon) Ntcp R158G (Papio hamadryas).
In assay [6] the target is T5, sodium-dependent organic anion transporter (SOAT) (UniProt Q3KNW5).
T5 sequence: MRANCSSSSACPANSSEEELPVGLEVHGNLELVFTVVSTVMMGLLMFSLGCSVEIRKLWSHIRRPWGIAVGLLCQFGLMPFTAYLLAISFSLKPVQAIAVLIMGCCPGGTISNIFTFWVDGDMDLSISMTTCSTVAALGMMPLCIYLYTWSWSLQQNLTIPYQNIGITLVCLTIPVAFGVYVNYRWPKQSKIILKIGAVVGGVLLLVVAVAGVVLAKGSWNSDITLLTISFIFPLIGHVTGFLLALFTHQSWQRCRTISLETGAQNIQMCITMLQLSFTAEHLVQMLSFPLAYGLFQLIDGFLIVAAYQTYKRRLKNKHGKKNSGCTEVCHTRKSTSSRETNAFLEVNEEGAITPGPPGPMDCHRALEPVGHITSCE

As for “HBV myr-preS1-Al633-peptide (from UniProt P03138 2-48)”, the binding result in assay [1] was “no binding (tested: 10 nM)”; in assay [2], “binds”; in assay [3], “no binding (tested: 10 nM)”; in assay [4] it was “no binding (tested: 10 nM)”; in assay [5], “binds”; in assay [6], “no binding (tested: 10 nM)”.
